# Measurements from the supplement of paper PMC7826260.
# The list shows a part of the results. Viral Rep nickase domains cut single-stranded DNA in vitro for 1 h at 37 °C with 3 µM enzyme; only the middle of the 90-letter strands is printed. Numbers give uncut DNA relative to the enzyme-free pool, as log2; uncut sequences lie near 0, cut ones below; no hit call is given. The scaling is to total reads; where an enzyme cuts many sequences, the uncut ones exceed 0.
# Assays:
# Test in all cases: uncleaved DNA left, log2 of reads against the no-enzyme library (log2 ratio); higher = less cleavage (more negative = more Rep cleavage of the k-mer); sequences stand for … in CTCGTCCG…ACCGGAGA
# [1] = tested on: T1, Rep nickase domain of Muscovy duck circovirus
# T1 sequence (residues 1-111 of Rep, tag left off): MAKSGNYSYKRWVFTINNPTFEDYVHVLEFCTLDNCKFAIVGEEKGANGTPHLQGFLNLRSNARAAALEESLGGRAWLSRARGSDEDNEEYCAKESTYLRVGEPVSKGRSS
# Experimental: (§1)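 A pool of 90-nt single-stranded DNAs with seven random bases just before the constant AC of the nick site (name = the seven bases) was cut by 3 µM recombinant His6-SUMO-tagged Rep nickase domain (300 nM DNA, 50 mM HEPES pH 8.0, 50 mM NaCl, 1 mM MnCl2, 1 h, 37 °C, three replicates). Uncut DNA was amplified and sequenced.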
# [2] = tested on: T2, Rep nickase domain of banana bunchy top virus
# T2 sequence (residues 1-94 of Rep, tag left off): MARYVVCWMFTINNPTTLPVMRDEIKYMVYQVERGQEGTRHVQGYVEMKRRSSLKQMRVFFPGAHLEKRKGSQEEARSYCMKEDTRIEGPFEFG
# Experimental: as §1
# [3] = tested on: T3, Rep nickase domain of cabbage leaf curl virus
# T3 sequence (residues 1-116 of Rep, tag left off): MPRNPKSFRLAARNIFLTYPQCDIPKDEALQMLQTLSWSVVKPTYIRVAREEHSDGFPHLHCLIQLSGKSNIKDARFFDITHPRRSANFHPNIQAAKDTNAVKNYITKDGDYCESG
# Experimental: as §1
# [4] = tested on: T4, Rep nickase domain of chickpea chlorotic dwarf virus
# T4 sequence (residues 1-124 of Rep, tag left off): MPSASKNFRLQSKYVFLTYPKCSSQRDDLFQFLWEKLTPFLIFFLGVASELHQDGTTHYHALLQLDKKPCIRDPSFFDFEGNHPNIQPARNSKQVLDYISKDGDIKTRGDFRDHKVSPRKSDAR
# Experimental: as §1
# [5] = tested on: T5, Rep nickase domain of faba bean necrotic yellows virus
# T5 sequence (residues 1-98 of Rep, tag left off): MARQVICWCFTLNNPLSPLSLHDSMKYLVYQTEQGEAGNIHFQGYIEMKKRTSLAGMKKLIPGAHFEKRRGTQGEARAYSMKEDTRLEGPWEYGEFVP
# Experimental: as §1
# [6] = tested on: T6, Rep nickase domain of maize striate mosaic virus
# T6 sequence (residues 1-117 of Rep, tag left off): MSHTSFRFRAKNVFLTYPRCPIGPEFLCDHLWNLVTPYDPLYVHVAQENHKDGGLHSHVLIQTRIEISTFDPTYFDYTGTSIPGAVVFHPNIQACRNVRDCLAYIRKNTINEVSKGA
# Experimental: as §1
# [7] = tested on: T7, Rep nickase domain of porcine circovirus 2
# T7 sequence (residues 2-116 of Rep, tag left off): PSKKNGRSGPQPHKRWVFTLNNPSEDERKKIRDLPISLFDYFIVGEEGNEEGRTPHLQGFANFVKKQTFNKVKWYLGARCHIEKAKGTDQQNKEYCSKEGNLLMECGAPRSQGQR
# Experimental: as §1
# [8] = tested on: T8, Rep nickase domain of tomato golden mosaic virus
# T8 sequence (residues 1-124 of Rep, tag left off): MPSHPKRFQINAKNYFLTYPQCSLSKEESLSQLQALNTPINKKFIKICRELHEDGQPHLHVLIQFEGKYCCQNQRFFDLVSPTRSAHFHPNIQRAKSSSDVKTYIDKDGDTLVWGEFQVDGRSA
# Experimental: as §1
# [9] = tested on: T9, Rep nickase domain of tomato yellow leaf curl virus
# T9 sequence (residues 1-136 of Rep, tag left off): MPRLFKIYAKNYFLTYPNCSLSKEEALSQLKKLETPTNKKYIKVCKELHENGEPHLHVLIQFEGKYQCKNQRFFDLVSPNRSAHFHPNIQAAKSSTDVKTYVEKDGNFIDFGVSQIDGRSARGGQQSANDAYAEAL
# Experimental: as §1
# [10] = tested on: T10, Rep nickase domain of wheat dwarf virus
# T10 sequence (residues 1-137 of Rep, tag left off): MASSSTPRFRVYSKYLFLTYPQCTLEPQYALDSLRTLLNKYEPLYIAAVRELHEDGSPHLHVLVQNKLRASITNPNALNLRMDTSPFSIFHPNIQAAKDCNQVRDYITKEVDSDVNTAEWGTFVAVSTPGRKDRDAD
# Experimental: as §1
Sequence,uncleaved DNA left (log2) [1],uncleaved DNA left (log2) [2],uncleaved DNA left (log2) [3],uncleaved DNA left (log2) [4],uncleaved DNA left (log2) [5],uncleaved DNA left (log2) [6],uncleaved DNA left (log2) [7],uncleaved DNA left (log2) [8],uncleaved DNA left (log2) [9],uncleaved DNA left (log2) [10]
CGGCGAC,-0.0088,-0.0602,0.0747,0.587,0.141,0.794,0.0838,-0.16,-0.0641,0.0265
GTCCTCG,-0.129,-0.027,0.0904,0.326,-0.167,0.598,0.0578,-0.0123,-0.0665,-0.0183
AGAACTT,-0.0652,-0.026,0.327,0.445,-0.0745,1.3,-0.263,-0.126,-0.121,0.0192
GCTCAAC,-0.0844,0.0525,0.0491,-0.315,0.00374,0.14,0.0317,-0.0748,-0.0614,0.0326
ACCAACA,-0.104,-0.0835,-0.425,-2.39,0.0728,-1.02,-0.0933,-0.13,-0.199,0.069
GCGCCAT,-0.0187,0.00405,0.435,1.09,0.0973,1.38,-0.00424,-0.0889,0.034,0.0543
TACATCA,0.00582,0.0304,-0.025,-2.16,-0.0345,-0.0112,-0.0379,-0.000271,0.19,0.217
ACTTGCA,0.0561,0.025,-0.589,-0.279,0.098,-0.811,0.121,-0.0647,0.159,-0.0284
ACAGAGC,0.125,0.0451,-0.423,-0.513,0.0548,-1.07,0.244,0.0316,0.268,0.00203
GACGATG,0.0534,-0.0218,0.0396,0.537,-0.00376,0.972,0.0802,-0.0276,-0.127,-0.0945
GAAGAGA,0.0999,0.00999,0.632,1.14,0.0485,1.17,0.218,0.0807,0.0585,0.194
GACGTCA,0.0702,0.0957,0.365,-0.000577,0.113,0.779,0.0152,0.0865,-0.0246,0.152
CCGATGG,0.111,-0.081,-0.0175,0.184,-0.145,-0.449,0.118,-0.0252,-0.144,0.0442
CGGAAGC,0.14,0.0452,0.296,0.399,-0.00848,-0.0851,0.0533,0.103,0.119,0.129
GTATTTT,-0.532,-0.0358,0.169,0.708,-0.164,1.76,-0.52,0.0325,0.101,0.0248
GCGTCGT,0.0498,0.0451,-0.162,-0.0765,0.0514,-0.228,-0.144,0.00479,0.0825,-0.0563
TGAGGCA,-0.0429,-0.0335,0.163,0.303,-0.051,0.191,-0.0879,-0.0365,-0.145,-0.0557
TGCAGGA,0.152,0.0685,0.0373,0.402,0.0735,-0.195,0.0996,0.103,0.064,0.079
CTATGCT,-1.77,-0.0165,-1.76,-1.86,-0.0557,-1.46,-1.99,-0.28,-0.0519,-0.255
TCCCTAT,0.086,-0.198,0.113,-0.783,-0.106,-0.353,-0.148,-0.0812,-0.208,0.11
CGTCGAG,-0.00426,0.0332,-0.0346,0.0364,-0.00558,-0.741,0.132,0.0787,0.0453,-0.0287
TAAGGCA,0.0645,0.0642,-0.161,-0.724,0.0256,0.092,0.038,0.0364,0.046,-0.027
ACACTAC,0.0138,0.0978,-0.384,-2.03,0.104,-0.831,0.165,-0.00673,-0.000648,-0.0862
GTAGTTT,0.151,0.11,0.377,0.863,0.0404,1.8,0.145,0.0818,0.0815,0.166
TGAACCC,0.0692,0.0694,0.426,0.428,0.142,0.736,-0.38,-0.0437,0.12,0.2
TTCTAGA,-0.0839,-0.139,0.124,0.0903,-0.134,-0.198,0.0306,-0.0795,-0.00403,-0.0227
CCCCGAT,0.046,-0.0328,0.142,0.104,-0.0677,0.00373,-0.131,0.111,-0.0783,-0.039
ATCTTCT,-1.05,-0.321,-0.378,-2.39,-0.0235,-0.926,-3.41,-0.0238,-0.0515,-0.0893
GGCTGCG,0.0717,-0.0166,-0.649,0.308,-0.0359,-0.379,0.0632,-0.0502,-0.284,-0.164
